Consider one molecule from US10858425B2, “Pan-ELR+ CXC chemokine antibodies” (Eli Lilly and Company, priority 2013, dated 2020).

Data set [1] concerns the target T1, human CXCL5 (Homo sapiens, UniProt P42830).
T1 sequence (P42830 41-114 limits assumed): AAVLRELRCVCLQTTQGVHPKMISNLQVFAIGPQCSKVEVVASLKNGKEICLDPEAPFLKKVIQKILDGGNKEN
Nature of the data set: FLIPR neutralization using HMEC cells expressing human CXCR2, CXCL5. As to conditions: CXCL5 10 nM; HMEC-huCXCR2 FLIPR. The data set is classed as cell-based. The source says:
(§1) Since all of the ELR+ CXC chemokines can bind CXCR2 receptor, cells expressing CXCR2 were selected for in vitro studies. HMEC-huCXCR2 is an immortalized human endothelial cell line transduced with retrovirus for expression of human CXCR2 receptor. HMEC cells expressing human CXCR2 are able to induce intracellular Ca^2+ influx in response to human, cynomolgus monkey, rat, and mouse ELR+CXC chemokines. Intracellular Ca^2+ influx can be detected by a Fluorescent Imagine £late Reader (FLIPR). Chemokine neutralization should therefore also neutralize intracellular Ca^2+ influx induced by these chemokines.
(§2) HMEC-huCXCR2 is maintained in MCDB 31 medium supplemented with 10% fetal bovine serum, 2× GlutaMax, 1× non-essential amino acids, 1 μg/mL hydrocortisone, 10 ng/mL human Epidermal Growth Factor, and 0.4 μg/mL puromycin at 37° C. in 5% CO2. […] A cell plate and a ligand-antibody plate are loaded into a Fluorescent Imagine Plate Reader (FLIPR-3, Molecular Devices) programmed to transfer 50 μL of ligand-antibody to wells of the cell plate. Fluorescence is recorded every second for 90 seconds. The change in fluorescence (DRFU) is calculated from images 10 to 90. DRFU versus log (antibody concentration) is plotted and IC50 values are determined by nonlinear regression using Graph Pad Prism. […] Data are expressed as the mean of replicates. […]

The target in data set [2] is T2, human CXCL7 (Homo sapiens, UniProt P02775).
T2 sequence (P02775 59-128 limits assumed): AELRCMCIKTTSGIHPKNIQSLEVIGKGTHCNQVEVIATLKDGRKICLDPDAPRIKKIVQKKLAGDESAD
Nature of the data set: FLIPR neutralization using HMEC cells expressing human CXCR2, CXCL7. The data set is classed as cell-based. To be noted: CXCL7 10 nM; HMEC-huCXCR2 FLIPR.
Text: as §1, §2

Data set [3] has as its system 786-0 renal cell carcinoma (RCC) cells. Put plainly: 786-0 clear cell renal cell xenograft model. As to conditions: addition of Antibody 1 (20 mg/kg once a week) to sunitinib treatment (10 mg/kg two times a day); p<0.0001. The class given is in vivo, athymic nude female mice. The protocol: 786-0 renal cell carcinoma (RCC) cells are mixed 1:1 with matrigel and implanted subcutaneously in the right rear flank of athymic nude female mice at 3.0×10^6 cells per injection. 786-0 xenograft-bearing mice having tumor volumes that reached 100 mm^3 were orally gavaged with 10 mg/kg of sunitinib two times a day under a continuous dosing regimen until the mice started progressing with tumor growth even under sunitinib treatment like control-treated mice (IgG4 and 10% vehicle). Mice that were progressing with tumor growth on sunitinib therapy were randomly divided into 2 groups. One group receives sunitinib at 10 mg/kg two times a day plus control IgG4 antibody at 20 mg/kg once a week. The other group receives suninitib at 10 mg/kg two times a day plus Antibody 1 at 20 mg/kg once a week.

Data set [4] can be described thus: Physical stability evaluation, % HMW aggregate by analytical SEC. As to conditions: for % HMW (t = 1 week) / Δ % HMW (t = 1 week) / % HMW (t = 4 weeks) / Δ % HMW (t = 4 weeks): 50 mg/mL; for Δ % HMW (t = 1 week): 1 week minus initial; for Δ % HMW (t = 4 weeks): 4 weeks minus initial. The data set is classed as physicochemical. The source says: Protein aggregation and self-association is an undesirable property in antibodies as it could potentially exacerbate unwanted effects, such as triggering an immune response. Thus, maintaining the antibody in a monomeric state is highly desirable. Percent high molecular weight (% HMW) aggregate is an indicator of protein aggregation and self-association. A higher % HMW aggregate indicates increased protein aggregation/self-association and increased physical instability. Physical stability of Antibody 1 and Antibody 2 are determined as follows.
Antibody is dialyzed overnight at 4° C. into 10 mM Citrate, pH 6+/−150 mM NaCl. The next morning, the samples are concentrated to 50 mg/mL, filtered through 0.2 micron filters, and then Tween-80 is added to a final concentration of 0.02%. Each sample is incubated at 25° C. for the specified times. Soluble aggregate formation is followed by analytical SEC using a TSK3000SWXL, 5 micron column with dimensions 30 cm×0.78 cm. […] Samples are applied as 1 μL injections and monitored at 280 nm to determine the increase % HMW aggregate (Table 3).
The 50 mg/mL formulations are incubated for 1 and 4 weeks at 25° C. to assess longer-term stability under stress conditions. The delta % HMW aggregate is determined by subtracting the % HMW aggregate at time zero (designated as ‘Initial’ in Table 3) from the % HMW at the 1 week or 4 week time point.

The target of data set [5] is T3, human CXCL2 (Homo sapiens, UniProt P19875).
T3 sequence (P19875 35-107): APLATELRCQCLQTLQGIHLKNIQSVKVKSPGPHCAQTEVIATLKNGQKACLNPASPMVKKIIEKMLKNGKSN
Nature of the data set: FLIPR neutralization using HMEC cells expressing human CXCR2, CXCL2. To be noted: CXCL2 10 nM; HMEC-huCXCR2 FLIPR. The class given is cell-based.
Text: as §1, §2

Setting [6] is: 10 mM Citrate pH7, 150 mM NaCl 25° C.
[7] abbreviates: 10 mM Citrate pH7, 150 mM NaCl, 0.02% Tween-80 25° C.

B1: Antibody 1: antibody with heavy chain SEQ ID NO: 1 and light chain SEQ ID NO: 3, expressed in NSO cells (antibody)
heavy: QVQLVQSGAEVKKPGASVKVSCKASGYEFTSYWIHWVRQAPGQGLEWMGNISPNSGSANYNEKFKSRVTMTRDTSTSTVYMELSSLRSEDTAVYYCAREGPYSYYPSREYYGSDLWGQGTLVTVSSASTKGPSVFPLAPCSRSTSESTAALGCLVKDYFPEPVTVSWNSGALTSGVHTFPAVLQSSGLYSLSSVVTVPSSSLGTKTYTCNVDHKPSNTKVDKRV[human IgG4 Fc with S228P (EU numbers) not spelt out]
light: EIVLTQSPATLSLSPGERATLSCRASQSISNNLHWYQQKPGQAPRLLIYYTSRSVSGIPARFSGSGSGTDFTLTISSLEPEDFAVYYCGQNNEWPEVFGGGTKVEIKRTVAAPSVFIFPPSDEQLKSGTASVVCLLNNFYPREAKVQWKVDNALQSGNSQESVTEQDSKDSTYSLSSTLTLSKADYEKHKVYACEVTHQGLSSPVTKSFNRGEC
On to B1, for which the IC50 in data set [1] is 0.681 (±0.347) ug/mL; in data set [2] it was 1.068 (±0.324) ug/mL; in data set [5] it was 1.281 (±0.449) ug/mL. In data set [3], the “tumor growth over time” value is “reduced tumor growth significantly”. The “% HMW Initial (4° C.)” value in data set [4] (10 mM Citrate pH7, 150 mM NaCl, 0.02% Tween-80) is recorded as 1.05%; in data set [4] (10 mM Citrate pH7, 150 mM NaCl), 0.78%. Besides, the “% HMW (t = 1 week)” value is 1.24% in data set [4] (setting [6]) and 1.46% in data set [4] (setting [7]). In addition, the “Δ % HMW (t = 1 week)” value in data set [4] (setting [6]) came to 0.46%; in data set [4] (setting [7]) it was 0.41%. The results for the “% HMW (t = 4 weeks)” value in data set [4] (setting [6]) and in data set [4] (setting [7]) were 1.41% and 1.75%, respectively. Further, the results for the “Δ % HMW (t = 4 weeks)” value in data set [4] (setting [6]) and in data set [4] (setting [7]) were 0.63% and 0.7%, respectively.
